First the molecules themselves.
B1: PhoQ; a variant is named by its letters at X, in order, P23837 (parent)
chain: MKKLLRLFFPLSLRVRFLLATAAVVLVLSLAYGMVALIGYSVSFDKTTFRLLRGESNLFYTLAKWENNKLHVELPENIDKQSPTMTLIYDENGQLLWAQRDVPWLMKMIQPDWLKSNGFHEIEADVNDTSLLLSGDHSIQQQLQEVREDDDDAEMTHSVAVNVYPATSRMPKLTIVVVDTIPVELKSSYMVWSWFIYVLSANLLLVIPLLWVAAWWSLRPIEALAKEVRELEEHNRELLNPATTRELTSLVRNLNRLLKSERERYDKYRTTLTDLTHSLKTPLXXLQXXLRSLRSEKMSVSDAEPVMLEQISRISQQIGYYLHRASMRGGTLLSRELHPVAPLLDNLTSALNKVYQRKGVNISLDISPEISFVGEQNDFVEVMGNVLDNACKYCLEFVEISARQTDEHLYIVVEDDGPGIPLSKREVIFDRGQRVDTLRPGQGVGLAVAREITEQYEGKIVAGESMLGGARMEVIFGRQHSAPKDE

The other results are listed elsewhere or left out.

In this assay the parent is B1. Briefly: enrichment ratio after two sorts for PhoP signalling (ratio (wild type AVST 3.29)); higher = more functional. The note with it: with PhoP (E. coli).
SVLT: the enrichment ratio amounted to 5.87.

For the variant TVEK, the enrichment ratio was 13.3. In the case of NHKT it was not above 0.25. In the case of HNTS it was not above 0.25. For YFMN, the enrichment ratio was not above 0.25. In the case of DSWG it was not above 0.25; in that of EYPT, not above 0.25; in that of PMDL, not above 0.25. For HLMM, the enrichment ratio is not above 0.25. In the case of HSMS it was not above 0.25. In the case of WFIY it was not above 0.25; in that of EPHF, not above 0.25. For the variant VMLR, the enrichment ratio is not above 0.25. In the case of SPKM it was not above 0.25; in that of FGQE, not above 0.25; in that of SQAD, 5.86. In the case of EDTM it was not above 0.25; in that of RTVS, not above 0.25; in that of VCTN, not above 0.25. In the case of PDHF it was not above 0.25. For the variant IERI, the enrichment ratio was not above 0.25. In the case of TNSQ it was 6.98. In the case of WMYL it was not above 0.25; in that of RLSL, not above 0.25; in that of PRIT, not above 0.25.

As for LMAA, the enrichment ratio is not above 0.25. In the case of SEFQ it was 6.8; in that of PTLF, not above 0.25; in that of GKNS, not above 0.25.

Consider EITA, for which the enrichment ratio is not above 0.25. As for HEPQ, the enrichment ratio is not above 0.25. Regarding INSK, the enrichment ratio was not above 0.25. For the variant DQFD, the enrichment ratio is not above 0.25. Regarding HALT, the enrichment ratio is not above 0.25.

AGWI: the enrichment ratio is not above 0.25. Consider YPTS, for which the enrichment ratio is not above 0.25.

With WELQ, the enrichment ratio was not above 0.25. For the variant LCKI, the enrichment ratio was not above 0.25. In the case of LSMQ it was 0.756.

YKVT: the enrichment ratio was not above 0.25.

For the variant PGYW, the enrichment ratio was not above 0.25. In the case of LQFR it was not above 0.25; in that of GEDY, not above 0.25. In the case of NRHF it was not above 0.25. In the case of DCAT it was not above 0.25; in that of YPDF, not above 0.25; in that of LRDW, not above 0.25. On to QDIL, for which the enrichment ratio was not above 0.25. In the case of AGPE it was not above 0.25; in that of TYAP, not above 0.25; in that of MFRH, not above 0.25. In the case of PIIR it was not above 0.25.

Regarding REQE, the enrichment ratio was not above 0.25.

Regarding EGIC, the enrichment ratio was not above 0.25. In the case of WTYN it was not above 0.25; in that of DWIC, not above 0.25. In the case of IYTI it was not above 0.25. In the case of PFQV it was not above 0.25. Regarding NRAT, the enrichment ratio was not above 0.25. In the case of VPME it was not above 0.25.

With ACIN, the enrichment ratio amounted to 2.16.

Consider NKAM, for which the enrichment ratio was not above 0.25.

For the variant FGKW, the enrichment ratio was not above 0.25. In the case of LQGF it was not above 0.25; in that of PDNH, not above 0.25; in that of MVRR, not above 0.25. In the case of VTEF it was not above 0.25; in that of SYWT, not above 0.25; in that of ETNL, not above 0.25. In the case of MEYF it was not above 0.25. As to TWDC, the enrichment ratio was not above 0.25.

With FWQH, the enrichment ratio is not above 0.25. In the case of KKHT it was not above 0.25.

With FRTI, the enrichment ratio was not above 0.25. In the case of LVGI it was not above 0.25; in that of MFPS, not above 0.25. Consider GVTK, for which the enrichment ratio is not above 0.25. In the case of RMCF it was not above 0.25; in that of WQWG, not above 0.25.

Turning to WMHD, the enrichment ratio was not above 0.25.

For the variant IHYA, the enrichment ratio is not above 0.25. In the case of GQEV it was not above 0.25; in that of VKYR, 0.327. In the case of TEAY it was 9.22; in that of LTPW, not above 0.25. In the case of PYPE it was not above 0.25; in that of LFNH, not above 0.25; in that of NKEF, not above 0.25. As for WDWS, the enrichment ratio was not above 0.25. As to VMMI, the enrichment ratio was not above 0.25. In the case of MGYN it was not above 0.25; in that of IGPK, not above 0.25. In the case of RKLS it was not above 0.25. In the case of DDSW it was not above 0.25. For SIYQ, the enrichment ratio came to 2.52. In the case of WHCI it was not above 0.25. In the case of IIRS it was not above 0.25; in that of ALQF, not above 0.25. In the case of DGNP it was not above 0.25; in that of AGNN, not above 0.25; in that of YDHK, not above 0.25. Regarding DVRR, the enrichment ratio is not above 0.25. In the case of PNCH it was not above 0.25.

Regarding LNQK, the enrichment ratio is not above 0.25. Regarding PSGA, the enrichment ratio was not above 0.25.

As to CQII, the enrichment ratio is not above 0.25. In the case of KRQR it was not above 0.25; in that of MAFE, 8.88; in that of DGFA, not above 0.25. In the case of TTIT it was not above 0.25. In the case of HERI it was not above 0.25; in that of QFCK, not above 0.25; in that of FNFG, not above 0.25. For MQYD, the enrichment ratio is not above 0.25. TGTF: the enrichment ratio stood at 4.57. In the case of WYYH it was not above 0.25. In the case of GMQL it was not above 0.25; in that of PVAV, not above 0.25; in that of VEPY, not above 0.25.

Regarding QKLT, the enrichment ratio was not above 0.25.

For the variant WLFE, the enrichment ratio is not above 0.25. In the case of FKDG it was not above 0.25; in that of NIPD, not above 0.25; in that of GQKT, not above 0.25. In the case of MLIR it was not above 0.25; in that of EDDN, not above 0.25.

Turning to RDWI, the enrichment ratio amounted to 2.2.

Turning to DTWH, the enrichment ratio is not above 0.25. As for ISLS, the enrichment ratio was not above 0.25. In the case of HNDM it was not above 0.25. In the case of YADH it was not above 0.25. In the case of HRRH it was not above 0.25; in that of TAFA, 0.563. In the case of LIHR, the enrichment ratio was not above 0.25. For the variant LLRT, the enrichment ratio is not above 0.25. In the case of ENYK it was not above 0.25; in that of MRYN, not above 0.25. In the case of KLCT it was not above 0.25; in that of KAVY, 0.289; in that of SFVA, 0.932. In the case of YSCG it was not above 0.25; in that of HDHI, not above 0.25; in that of RRTG, not above 0.25. Take IAQI: the enrichment ratio is not above 0.25.

On to TCQW, for which the enrichment ratio is not above 0.25. As for LNCP, the enrichment ratio was not above 0.25.

As to FHNS, the enrichment ratio was not above 0.25. With VVWN, the enrichment ratio was not above 0.25. In the case of IWYY it was not above 0.25; in that of YCQL, not above 0.25. In the case of VYCP it was not above 0.25. In the case of HWSI it was not above 0.25. As for QPCN, the enrichment ratio was not above 0.25.

For the origin of these results see a collection of fitness landscapes (doi:10.1126/science.1257360).
